Among the data in PubChem BioAssay (NCI) are TGI and GI50 values, retold here.

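Exposure lasted 48 hours, with cells grown in 96-well plates and compounds tested at five concentrations. Here, GI50 denotes the concentration required for 50% inhibition of growth.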 A number of entries come with more than one value. The other results are left out here. There may be further records. For part of these data: The tests behind the records often covered other concentration ranges, not given here; some values may only mark the edge of a range. What stands in brackets tells the records apart. The letters are not those of the source and start again with each entry. For part of these data: The values listed for one entry are repeats (runs, samples, wells, individuals or studies).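 TGI is the concentration that stops growth completely.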

Among the test systems are HL-60(TB) leukemia; CAKI-1 renal; SNB-75 CNS; EKVX NSCLC; MALME-3M melanoma; HOP-92 NSCLC; SK-OV-3 ovarian; SK-MEL-28 melanoma; SNB-78 CNS; SF-295 CNS; SF-268 CNS; RXF 393 renal; A498 renal; K-562 leukemia; SW-620 colon; NCI-H522 lung; BT-549 breast; OVCAR-8 ovarian; SK-MEL-2 melanoma; IGROV1 ovarian; U251 CNS.
What all share (experiment): NCI tumour cell line growth inhibition, 48 h

In the case of `COC1=Nc2ccccc2S(=O)(=O)C=C1`, the TGI in the assay with HL-60(TB) leukemia is 458 nM and 6.66 µM; with CAKI-1 renal, 620 nM and 27.2 µM.

Take `Nc1nc(N)c2nc(CNc3ccc(C(=O)NC(CCCNC(=O)c4ccccc4C(=O)O)C(=O)O)cc3)cnc2n1` (configuration not stated): the GI50 in the assay with SNB-75 CNS is 1.43 µM [sample A, mean of 2 tests] and > 100 µM [sample B, mean of 2 tests]; with EKVX NSCLC, < 10 nM [sample A, mean of 2 tests] and 22.1 nM, > 100 µM [sample B, mean of 2 tests]; in the assay with MALME-3M melanoma, 53.4 µM [sample A, 1 test] and 1.96 nM [sample B, 1 test]; in the assay with SK-OV-3 ovarian, > 39.5 µM [sample A, mean of 2 tests] and 50.5 nM [sample B, mean of 2 tests]; in the assay with SK-MEL-28 melanoma, < 10 nM [sample A, 1 test] and 4.64 nM [sample B, 1 test] and 60.6 nM [sample B, mean of 2 tests]; in the assay with SNB-78 CNS it was > 100 µM [sample A, mean of 2 tests] and 0.448 nM [sample B, 1 test]. Further, the GI50 is 40 nM [sample A, 1 test] and 1.83 nM [sample B, mean of 2 tests] in the assay with SF-268 CNS; > 100 µM [sample A, 1 test] and 29.2 nM [sample B, mean of 2 tests] and 2.69 µM [sample B, mean of 3 tests] with RXF 393 renal; > 100 µM [sample A, 1 test] and 21.6 nM [sample B, mean of 2 tests] in the assay with A498 renal. Moreover, the TGI was 794 nM [sample A, 1 test] and > 100 µM [sample B, mean of 2 tests] in the assay with HOP-92 NSCLC; > 100 µM [sample A, mean of 2 tests] and 84.6 nM, > 100 µM [sample B, mean of 2 tests] in the assay on SK-OV-3 ovarian; > 100 µM [sample A, mean of 2 tests] and > 100 µM [sample B, 1 test] and 72.8 nM [sample B, mean of 2 tests] with SF-295 CNS.

Regarding `C/C(=C\c1ccc(Cl)c(Cl)c1)[N+](=O)[O-]`, the TGI in the assay with SNB-75 CNS is 2.78 µM [sample A] and > 100 µM [sample B]; in the assay with K-562 leukemia it was > 100 µM [sample A] and 8.36 µM [sample B]; in the assay with SW-620 colon, 3 µM [sample A] and > 100 µM [sample B].

Turning to `N#Cc1ccc(C(c2ccc(C#N)cc2)n2cncn2)cc1`, the GI50 with NCI-H522 lung was 73.3 µM and > 5 mM; in the assay with BT-549 breast, 11.9 nM and > 5 mM; in the assay on SK-MEL-28 melanoma, 52.1 µM and > 5 mM; in the assay with OVCAR-8 ovarian it was 79.5 µM and > 5 mM; with A498 renal, 25.4 µM and > 5 mM; in the assay on SK-MEL-2 melanoma, 13.8 nM and > 5 mM. In addition, the TGI with SK-MEL-2 melanoma is 69.2 µM and > 5 mM.

Take `COc1ccccc1S(=O)(=O)Nc1ccc2c(c1)CN(C)C(=O)N2`: the TGI in the assay on SNB-75 CNS was 6.48 µM [sample A, mean of 2 tests] and > 100 µM [sample B, mean of 2 tests].

On to `O=C(O)c1ccc2c(c1)nc(Nc1cccc(Cl)c1)c1ccncc12`, for which the TGI in the assay with IGROV1 ovarian was > 100 µM [sample A, mean of 2 tests] and 8.98 µM [sample B, 1 test]; with U251 CNS it was > 100 µM [sample A, 1 test] and 8.61 µM [sample B, 1 test].
